# Data as given in PubChem BioAssay AID1030 (National Center for Advancing Translational Sciences (NCATS), 2008).
# About 16,000 (7.3%) of roughly 220,000 compounds were called active. Inconclusive means that the source gave no clear call. Such entries were picked first, then a sample of the others. Calls follow the shape of the dose curve; as a rule, active = well fitted inhibition curve with a large enough effect (not every such curve was filed as active); inconclusive = small, poorly fitted or top-dose-only effect, or another doubt; inactive = no such curve, though single readings can be large or run the other way. Potencies of inconclusive entries are left out as doubtful fits.
# Target: Aldehyde dehydrogenase 1A1 (Homo sapiens) (UniProt P00352)
# Assay: qHTS Assay for Inhibitors of Aldehyde Dehydrogenase 1 (ALDH1A1)
# Conditions: Purified ALDH1A1, NADH fluorescence, propionaldehyde substrate; series mostly up to 75.3 µM
# Potency is read from the fitted curve at half-maximal effect; tags tell the direction and shape of the fitted curve.
# Chain of UniProt P00352 (P00352 whole entry, looked up): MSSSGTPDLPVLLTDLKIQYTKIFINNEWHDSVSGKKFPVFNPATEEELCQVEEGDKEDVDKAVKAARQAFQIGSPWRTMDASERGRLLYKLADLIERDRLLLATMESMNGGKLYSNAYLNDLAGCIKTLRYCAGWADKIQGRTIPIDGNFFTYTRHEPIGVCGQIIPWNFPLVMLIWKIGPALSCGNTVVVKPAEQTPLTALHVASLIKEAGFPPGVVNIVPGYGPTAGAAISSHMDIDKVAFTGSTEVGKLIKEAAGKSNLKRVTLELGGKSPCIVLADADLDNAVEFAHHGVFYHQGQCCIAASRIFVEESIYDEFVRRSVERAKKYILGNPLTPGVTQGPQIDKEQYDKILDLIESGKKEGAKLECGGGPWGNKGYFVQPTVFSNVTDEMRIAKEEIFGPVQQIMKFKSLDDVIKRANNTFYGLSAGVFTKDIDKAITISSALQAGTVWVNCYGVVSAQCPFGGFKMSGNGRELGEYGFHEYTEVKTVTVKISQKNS
row,Compound,Potency
1,Cc1cccc(C(=O)NC(NCCc2ccccc2)C(Cl)(Cl)Cl)c1 (configuration not stated),"inconclusive [inhibitor, single point]"
2,O=C(/C=C/c1cccs1)Nc1cccnc1,"inconclusive [inhibitor, single point]"
3,CC(C)c1ccc(NC(=O)C(c2ccccc2)N2CCC3(CC2)OCCO3)cc1 (configuration not stated),"inconclusive [inhibitor, single point]"
4,CC(/C=C/c1ccccc1)=N\Nc1nc(-c2ccccc2)cs1,"inconclusive [inhibitor, single point]"
5,COc1c2ccccc2c(OC)c2ccccc12,"inconclusive [inhibitor, single point]"
6,CCC(=O)NC(=S)Nc1ccc(NC(=O)c2cc3ccccc3o2)c(OC)c1,inactive
7,Cc1onc(-c2ccccc2)c1C(=O)O/N=C(\N)c1ccc([N+](=O)[O-])o1,"inconclusive [inhibitor, partial curve]"
8,CN(C)c1ncc2nc(-c3ccccc3)c(=O)n(CCC#N)c2n1,"inconclusive [inhibitor, partial curve]"
9,CN1C(=O)C(O)(CC(=O)c2cccc(-n3cccc3)c2)c2ccccc21 (configuration not stated),"inconclusive [inhibitor, single point]"
10,CC1CCCCN1C(=O)CSc1nc2ccsc2c(=O)n1Cc1ccccn1 (configuration not stated),active: 15.8 µM
11,CCOc1ccccc1CN1CCN(Cc2nc3c(s2)CCCC3)CC1CCO (configuration not stated),"inconclusive [inhibitor, single point]"
12,COc1ccc(S(=O)(=O)Nc2cc(OC)c(NC(=O)c3ccco3)cc2OC)cc1,"inconclusive [inhibitor, single point]"
13,Cc1ccc(C=Nc2ccccc2C#N)s1,"inconclusive [inhibitor, single point]"
14,Cc1nn(-c2ccccc2)c2[nH]c(=O)c(CNc3ccc4c(c3)OCCO4)cc12,"inconclusive [inhibitor, single point]"
15,CN(C)S(=O)(=O)c1ccc(C(=O)Nc2ccccc2[N+](=O)[O-])cc1,"inconclusive [inhibitor, single point]"
16,COc1ccc(OC)c(C2C3=C(COC3=O)Nc3cc4c(cc32)OCO4)c1 (configuration not stated),"inconclusive [inhibitor, single point]"
17,CN(C)CCCNC(=S)N(Cc1cccs1)Cc1cc2cc3c(cc2[nH]c1=O)OCCO3,"inconclusive [inhibitor, single point]"
18,C[C@@H](CCc1ccccc1)NC[C@H](O)c1ccc(O)c(C(N)=O)c1,"inconclusive [inhibitor, single point]"
19,Cc1c(-c2ccccc2)sc(Br)c1C(=O)N1CCOCC1,inactive
20,O=S(=O)(c1ccc(OCC(O)CN2CCN(c3ccccc3)CC2)cc1)N1CCOCC1 (configuration not stated),"inconclusive [inhibitor, single point]"
21,COc1ccc(C(=O)c2sc3nc(-c4ccccc4)ccc3c2N)cc1OC,inactive
22,Brc1ccc(-c2cn3c(n2)CCc2ccc4cccnc4c2-3)cc1,"inconclusive [inhibitor, partial curve]"
23,CCOC(=O)C1CCCN(c2ncnc3c2[nH]c2cccc(OC)c23)C1 (configuration not stated),"inconclusive [inhibitor, partial curve]"
24,CCN(CC)C(=O)c1c(NC(=O)c2ccccc2)sc(C)c1C,inactive

row,Compound,Potency
1,O=C1C=CC(=O)C2=C1C1c3ccccc3C2c2ccccc21,active: 0.708 µM
2,O=C(Oc1oc(-c2ccco2)nc1C=Nc1ccccc1)c1ccco1,"inconclusive [inhibitor, full curve]"
3,COc1ccc(/C=C/C(=O)NCCCc2ccccc2)cc1,"inconclusive [inhibitor, partial curve]"
4,CCCOC(=O)c1ccc(NC(=O)c2c(Cl)ccc(Cl)c2OC)cc1,"inconclusive [inhibitor, single point]"
5,COc1ccc(CCNC(=O)C2CCN(S(=O)(=O)c3cccc4nsnc34)CC2)cc1OC,"inconclusive [inhibitor, partial curve]"
6,CCOC(=O)C1CCCN(C(=S)Nc2ccc(Nc3ccccc3)cc2)C1 (configuration not stated),"inconclusive [inhibitor, single point]"
7,Cc1nn(-c2ccccc2)c(Cl)c1/C=N/NC(=O)c1ccccc1NS(=O)(=O)c1cccs1,"inconclusive [inhibitor, partial curve]"
8,CC(C)CC(=O)Nc1ccc2oc(-c3cccnc3)nc2c1,"inconclusive [inhibitor, partial curve]"
9,CCOC(=O)N1CCN(c2ccc(C(F)(F)F)cn2)CC1,inactive
10,C/C(=N\O)c1ncc(C(F)(F)F)cc1Cl,inactive
11,CCOC(=O)c1oc2ccccc2c1CSc1nnnn1-c1ccccc1,active: 6.31 µM
12,COc1ccc(C2NC(=S)NC(C)=C2C(=O)Nc2ccccn2)cc1 (configuration not stated),active: 14.1 µM
13,CCc1cc2c(N3CCCCC3)ncnc2s1,active: 20 µM
14,Cn1cc(C(=O)c2cccc(Cl)c2)cc1/C=N\O,"inconclusive [inhibitor, single point]"
15,CCOC(=O)c1cccc(NC(=O)CSc2nnc(C3CCCCC3)n2CC)c1,inactive
16,Cc1cc(C)c2c(N)c(S(=O)(=O)Cc3ccccc3)sc2n1,inactive
17,COc1ccc(NC(=O)COC(=O)CC2CC3CCC2C3)c([N+](=O)[O-])c1 (configuration not stated),"inconclusive [inhibitor, single point]"
18,CCOC(=O)C1CCN(C2CC(=O)N(c3cccc(Cl)c3)C2=O)CC1 (configuration not stated),active: 20 µM
19,COc1ccc(C(=O)NCCn2ccc3ccccc32)c(OC)c1,active: 10 µM
20,O=C(CSc1nnc2ccccn12)NCc1cccs1,"inconclusive [inhibitor, single point]"
21,Clc1ccc(C2=Nn3c(nnc3-c3cccs3)SC2)cc1,"inconclusive [inhibitor, single point]"
22,CCOC(=O)c1c(N)sc2c1CCC(C)C2 (configuration not stated),active: 12.6 µM
23,CCC(C)(C)C1CCc2c(sc(NC(=O)c3cccs3)c2C(N)=O)C1 (configuration not stated),"inconclusive [inhibitor, partial curve]"
24,O=C(COC(=O)c1ccc([N+](=O)[O-])o1)Nc1cccc2ccccc12,"inconclusive [inhibitor, single point]"

row,Compound,Potency
1,COc1ccc2[nH]cc(CCNc3cc(-c4ccccc4CN(C)C)ncn3)c2c1,"inconclusive [inhibitor, partial curve]"
2,COC(=O)C1=C(C)N(Cc2ccc(OC)cc2)C(=O)/C1=C\c1ccco1,inactive
3,COc1ccccc1NC(=O)Nc1ccc(Cl)c(S(=O)(=O)Nc2ccccc2OC)c1,inactive
4,CCCN(CC(=O)Nc1ccc(Cl)cc1Cl)C(=O)/C=C/c1cccc([N+](=O)[O-])c1,"inconclusive [inhibitor, partial curve]"
5,Oc1ccc(N=Nc2ccc(Br)cc2)c(O)c1,"inconclusive [inhibitor, single point]"
6,CCCn1c(N)c(Sc2ccc(Cl)cc2)c(=O)n(CCC)c1=O,inactive
7,CCCCCn1c(=O)[nH]c2cc(C(=O)N3CCN(CC)CC3)ccc2c1=O,"inconclusive [inhibitor, partial curve]"
8,Cc1noc(C)c1COc1cccc(C(=O)OCC(=O)N2CC(=O)Nc3ccccc32)c1,"inconclusive [inhibitor, single point]"
9,Nc1nc(SCC(=O)Nc2cc(C(F)(F)F)ccc2N2CCOCC2)n[nH]1,active: 22.4 µM
10,CCC(CC)C(=O)Oc1c(Sc2ccccc2[N+](=O)[O-])c(C)nn1C(C)(C)C,active: 2.24 µM
11,Cc1ccc(NC(=O)Cc2ccccc2)c(C)c1,inactive
12,CCOC(=O)N1CCC(N2CCN(CCC(C)C)C(CCO)C2)CC1 (configuration not stated),inactive
13,Cc1ccc(NC(C#N)c2ccccc2OCc2ccccc2)cc1 (configuration not stated),"inconclusive [inhibitor, partial curve]"
14,Nc1nc(SCc2nc(-c3ccccc3)no2)[nH]c(=O)c1-c1ccccc1,"inconclusive [inhibitor, partial curve]"
15,Cc1ccc(/C=C/C(=O)NCc2cccs2)cc1,"inconclusive [inhibitor, single point]"
16,CCOC(=O)CSC1=C(C#N)C(c2ccc(C)cc2)C2=C(CCCC2=O)N1 (configuration not stated),"inconclusive [inhibitor, partial curve]"
17,Cn1c(SCc2cccnc2)nc2c(c1=O)SCC2,"inconclusive [inhibitor, single point]"
18,Cc1ccccc1Cn1cnc2c(nnn2Cc2ccc(F)cc2)c1=O,inactive
19,COc1ccc(-n2nc(C#N)c(Cl)cc2=O)cc1,"inconclusive [inhibitor, single point]"
20,CC(C)CNCC(=O)N1c2ccccc2Sc2ccccc21,"inconclusive [inhibitor, single point]"
21,N#Cc1ccc(CSCC(=O)NN=C2CCCC2)cc1,"inconclusive [inhibitor, single point]"
22,O=C(N1CCN(c2ccccc2F)CC1)C1(c2cccs2)CCOCC1,"inconclusive [inhibitor, partial curve]"
23,Cc1cccc(C2c3[nH]c4ccccc4c3CCN2C(=O)c2ocnc2C)n1 (configuration not stated),"inconclusive [inhibitor, single point]"
24,COc1ccc(OC)c(-c2cc(C(=O)NCc3ccco3)no2)c1,"inconclusive [inhibitor, partial curve]"
